# This is one part of the list.
# B1: ArathEULS3 (Arabidopsis thaliana), Q945P1 (protein)
# chain: MEHHHQHHRHHQRDDGEDDRQSFGVPPPHVDAPPQPHGLYQSQPHFDPYAPTPQAPAPYRSETQFEPHAPPPYRSEPYFETPAPPPSFGHVSHVGHQSPNESYPPEHHRYGGYQQPSNSLLESHGDHSGVTHVAHHSSNQPQSSSGVYHKPDENRLPDNLAGLAGRATVKVYSKAEPNYNLTIRDGKVILAPADPSDEAQHWYKDEKYSTKVKDADGHPCFALVNKATGEAMKHSVGATHPVHLIRYVPDKLDESVLWTESKDFGDGYRTIRMVNNTRLNVDAYHGDSKSGGVRDGTTIVLWDWNKGDNQLWKIFPFILEQKLISEEDLNSAVDHHHHHH
# What was measured:
# Experiment in all cases: glycan array binding signal (z-score within array); higher = stronger binding
# Details in all cases: glycan notation: IUPAC condensed, linker removed
# [1] = molecular target: GlcNAc(b1-3)[GlcNAc(b1-6)]Gal(b1-4)GlcNAc
# Method in brief: (§1)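 The binding signal is a Z-score computed within each array and averaged over linkers. Arrays of the same protein sequence at different concentrations or buffers were also averaged together. Data originate from 3228 arrays in the Consortium for Functional Glycomics database, kept only where the protein sequence was available.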
# [2] = molecular target: GlcNAc(b1-3)[GlcNAc(b1-6)]GalNAc
# Method in brief: as §1
# [3] = molecular target: GlcNAc(b1-4)Gal(b1-4)GlcNAc
# Method in brief: as §1
# [4] = molecular target: GlcNAc(b1-4)GlcNAc
# Method in brief: as §1
# [5] = molecular target: GlcNAc(b1-4)GlcNAc(b1-4)GlcNAc
# Method in brief: as §1
# [6] = molecular target: GlcNAc(b1-4)GlcNAc(b1-4)GlcNAc(b1-4)GlcNAc(b1-4)GlcNAc
# Method in brief: as §1
# [7] = molecular target: GlcNAc(b1-4)GlcNAc(b1-4)GlcNAc(b1-4)GlcNAc(b1-4)GlcNAc(b1-4)GlcNAc
# Method in brief: as §1
# [8] = molecular target: GlcNAc(b1-4)[GlcNAc(b1-6)]GalNAc
# Method in brief: as §1
# [9] = molecular target: GlcNAc(b1-6)Gal(b1-4)GlcNAc
# Method in brief: as §1
# [10] = molecular target: GlcNAc(b1-6)GalNAc
# Method in brief: as §1
# [11] = molecular target: GlcNAc3Prop(b1-4)GlcNAc
# Method in brief: as §1
# [12] = molecular target: GlcNAc6S(b1-3)Gal(b1-4)GlcNAc
# Method in brief: as §1
# [13] = molecular target: Kdn(a2-3)Gal(b1-3)GalNAc
# Method in brief: as §1
# [14] = molecular target: Kdn(a2-3)Gal(b1-3)GlcNAc
# Method in brief: as §1
# [15] = molecular target: Kdn(a2-3)Gal(b1-4)Glc
# Method in brief: as §1
# [16] = molecular target: Kdn(a2-3)Gal(b1-4)GlcNAc
# Method in brief: as §1
# [17] = molecular target: Kdn(a2-3)Gal(b1-4)[Fuc(a1-3)]GlcNAc
# Method in brief: as §1
# [18] = molecular target: Kdn(a2-6)Gal(b1-4)GlcNAc
# Method in brief: as §1
# [19] = molecular target: Man(a1-2)Man(a1-2)Man(a1-3)Man
# Method in brief: as §1
# [20] = molecular target: Man(a1-2)Man(a1-2)Man(a1-6)[Man(a1-3)]Man
# Method in brief: as §1
# [21] = molecular target: Man(a1-2)Man(a1-3)Man
# Method in brief: as §1
# [22] = molecular target: Man(a1-2)Man(a1-3)[Man(a1-2)Man(a1-6)]Man
# Method in brief: as §1
# [23] = molecular target: Man(a1-2)Man(a1-3)[Man(a1-2)Man(a1-6)]Man(a1-6)[Man(a1-2)Man(a1-2)Man(a1-3)]Man
# Method in brief: as §1
# [24] = molecular target: Man(a1-2)Man(a1-3)[Man(a1-2)Man(a1-6)]Man(a1-6)[Man(a1-2)Man(a1-2)Man(a1-3)]Man(b1-4)GlcNAc(b1-4)GlcNAc
# Method in brief: as §1
# [25] = molecular target: Man(a1-2)Man(a1-3)[Man(a1-6)]Man(a1-6)[Man(a1-2)Man(a1-3)]Man(b1-4)GlcNAc(b1-4)GlcNAc
# Method in brief: as §1
# [26] = molecular target: Man(a1-2)Man(a1-6)[Man(a1-3)]Man(a1-6)[Man(a1-2)Man(a1-2)Man(a1-3)]Man
# Method in brief: as §1
# [27] = molecular target: Man(a1-2)Man(a1-6)[Man(a1-3)]Man(a1-6)[Man(a1-2)Man(a1-2)Man(a1-3)]Man(b1-4)GlcNAc(b1-4)GlcNAc
# Method in brief: as §1
# [28] = molecular target: Man(a1-3)[Man(a1-6)]Man
# Method in brief: as §1
# [29] = molecular target: Man(a1-3)[Man(a1-6)]Man(a1-6)[Man(a1-2)Man(a1-3)]Man(b1-4)GlcNAc(b1-4)GlcNAc
# Method in brief: as §1
# [30] = molecular target: Man(a1-3)[Man(a1-6)]Man(a1-6)[Man(a1-3)]Man
# Method in brief: as §1
# [31] = molecular target: Man(a1-3)[Man(a1-6)]Man(a1-6)[Man(a1-3)]Man(b1-4)GlcNAc(b1-4)GlcNAc
# Method in brief: as §1
# [32] = molecular target: Man(a1-3)[Man(a1-6)]Man(b1-4)GlcNAc(b1-4)GlcNAc
# Method in brief: as §1
# [33] = molecular target: Man(a1-3)[Man(a1-6)]Man(b1-4)GlcNAc(b1-4)[Fuc(a1-6)]GlcNAc
# Method in brief: as §1
# [34] = molecular target: Man(a1-6)Man
# Method in brief: as §1
# [35] = molecular target: Man(b1-4)GlcNAc
# Method in brief: as §1
# [36] = molecular target: Neu5Ac(a2-3)Gal
# Method in brief: as §1
# [37] = molecular target: Neu5Ac(a2-3)Gal(b1-3)GalNAc
# Method in brief: as §1
# [38] = molecular target: Neu5Ac(a2-3)Gal(b1-3)GalNAc(b1-3)Gal(a1-4)Gal(b1-4)Glc
# Method in brief: as §1
binder,measurement,setting,value
B1,glycan array binding signal (z-score),[1],-0.375
same,glycan array binding signal (z-score),[2],-0.203
same,glycan array binding signal (z-score),[3],-0.229
same,glycan array binding signal (z-score),[4],-0.268
same,glycan array binding signal (z-score),[5],-0.233
same,glycan array binding signal (z-score),[6],-0.358
same,glycan array binding signal (z-score),[7],-0.285
same,glycan array binding signal (z-score),[8],-0.324
same,glycan array binding signal (z-score),[9],-0.338
same,glycan array binding signal (z-score),[10],-0.333
same,glycan array binding signal (z-score),[11],-0.242
same,glycan array binding signal (z-score),[12],-0.169
same,glycan array binding signal (z-score),[13],-0.099
same,glycan array binding signal (z-score),[14],-0.273
same,glycan array binding signal (z-score),[15],0.388
same,glycan array binding signal (z-score),[16],-0.165
same,glycan array binding signal (z-score),[17],-0.175
same,glycan array binding signal (z-score),[18],-0.168
same,glycan array binding signal (z-score),[19],-0.223
same,glycan array binding signal (z-score),[20],-0.312
same,glycan array binding signal (z-score),[21],-0.279
same,glycan array binding signal (z-score),[22],-0.048
same,glycan array binding signal (z-score),[23],0.363
same,glycan array binding signal (z-score),[24],-0.229
same,glycan array binding signal (z-score),[25],-0.205
same,glycan array binding signal (z-score),[26],0.126
same,glycan array binding signal (z-score),[27],-0.159
same,glycan array binding signal (z-score),[28],-0.26
same,glycan array binding signal (z-score),[29],-0.147
same,glycan array binding signal (z-score),[30],-0.266
same,glycan array binding signal (z-score),[31],-0.223
same,glycan array binding signal (z-score),[32],-0.078
same,glycan array binding signal (z-score),[33],0.401
same,glycan array binding signal (z-score),[34],-0.048
same,glycan array binding signal (z-score),[35],-0.352
same,glycan array binding signal (z-score),[36],-0.328
same,glycan array binding signal (z-score),[37],-0.147
same,glycan array binding signal (z-score),[38],-0.261
